Experimental data reported in the supplement of paper PMC3334620.
In all, about 33,000 sequences were measured (“E-score (-0.5 to 0.5)”: median about -0.035, highest 2% from about 0.35 on). The list shows a part of the results.

Target: T1, Pdr3 (UniProt P33200)
T1 sequence: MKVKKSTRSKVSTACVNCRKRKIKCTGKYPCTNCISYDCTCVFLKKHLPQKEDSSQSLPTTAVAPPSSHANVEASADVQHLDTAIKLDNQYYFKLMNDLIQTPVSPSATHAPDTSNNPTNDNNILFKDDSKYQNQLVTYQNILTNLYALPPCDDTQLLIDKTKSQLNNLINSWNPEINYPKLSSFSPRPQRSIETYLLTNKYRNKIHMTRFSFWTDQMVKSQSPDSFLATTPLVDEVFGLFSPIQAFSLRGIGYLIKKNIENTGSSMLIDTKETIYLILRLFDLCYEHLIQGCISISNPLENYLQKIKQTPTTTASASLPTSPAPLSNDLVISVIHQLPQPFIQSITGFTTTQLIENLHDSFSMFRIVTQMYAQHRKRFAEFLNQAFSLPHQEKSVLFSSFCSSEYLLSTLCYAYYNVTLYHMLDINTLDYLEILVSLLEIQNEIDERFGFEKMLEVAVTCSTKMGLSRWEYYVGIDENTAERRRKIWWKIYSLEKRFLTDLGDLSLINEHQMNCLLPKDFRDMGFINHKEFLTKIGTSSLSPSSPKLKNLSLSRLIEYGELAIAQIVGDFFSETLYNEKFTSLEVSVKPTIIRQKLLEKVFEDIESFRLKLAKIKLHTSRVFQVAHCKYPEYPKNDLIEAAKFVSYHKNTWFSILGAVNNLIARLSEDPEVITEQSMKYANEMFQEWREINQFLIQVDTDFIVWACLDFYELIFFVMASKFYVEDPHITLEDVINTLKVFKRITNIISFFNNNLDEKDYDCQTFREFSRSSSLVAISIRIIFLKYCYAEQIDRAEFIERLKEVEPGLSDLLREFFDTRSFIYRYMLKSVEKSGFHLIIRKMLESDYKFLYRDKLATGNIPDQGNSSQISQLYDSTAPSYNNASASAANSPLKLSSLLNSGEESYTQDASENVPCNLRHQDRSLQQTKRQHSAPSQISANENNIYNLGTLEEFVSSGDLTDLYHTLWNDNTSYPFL
Test: PBM E-score (8-mer binding enrichment) (E-score (-0.5 to 0.5)); higher = stronger / more preferred TF binding; most listed sequences are background and not binding sites
Settings: protein concentration: 200 nM; construct: GST-full length
Experimental: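 Universal 'all 10-mer' protein binding microarrays (Agilent AMADID 015681) probed with GST-tagged S. cerevisiae TFs (full-length or DBD) made by in vitro transcription/translation (PURExpress), about 100-200 nM. Bound TF was detected with fluorescent anti-GST. Each ungapped 8-mer (which stands for itself and its reverse complement) is scored by the PBM enrichment score (E-score), a modified Wilcoxon-Mann-Whitney statistic from -0.5 to +0.5, computed with the Universal PBM Analysis Suite. Scale: above 0.35 generally sequence-specific binding.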

Row | Sequence | PBM E-score
1 | CTCTGCAG | -0.226
2 | AGGCCTTA | -0.254
3 | TATTATCA | -0.00298
4 | CAATGACG | -0.179
5 | ATGTAAGC | 0.0351
6 | CCTAAAGA | -0.277
7 | GTAATCGA | 0.0483
8 | AGTGGCTA | -0.311
9 | ACGAACAC | 0.0253
10 | TGGAAACA | -0.184
11 | GAGATTCA | 0.0192
12 | AAATCCTG | -0.107
13 | CACCGTAC | -0.119
14 | CATGCTTA | -0.197
15 | TCTAATCA | 0.0324
16 | GGATTTTA | 0.14
17 | CTACGTAG | -0.027
18 | AAGCGTCT | -0.162
19 | GCCTTTGA | -0.119
20 | GTAGTTAA | -0.033
21 | ACTTAGGA | -0.334
22 | AGAGCTGG | -0.0463
23 | GGGGCCAA | -0.0943
24 | GACTGTAA | -0.116
25 | GGAGCCCA | -0.138

Row | Sequence | PBM E-score
26 | ACCGGGAA | 0.309
27 | GGGAGTAA | -0.0521
28 | AGGGGTAC | -0.0636
29 | CTATTCAA | -0.0593
30 | GTGACACA | 0.00547
31 | AGCTTGGC | -0.178
32 | ACTCATTG | -0.02
33 | AGCACGCG | 0.0788
34 | AGTAGATG | -0.0364
35 | CAGGCCAC | 0.00119
36 | AGCTCCGA | 0.239
37 | CCGCTAAG | 0.148
38 | CGGGCCCG | 0.44
39 | CAGACGCG | -0.217
40 | TAAACCGA | 0.0491
41 | AGGGCCAT | -0.144
42 | GTTCGTCA | -0.122
43 | AGCCCTGC | -0.173
44 | CGTGGGGA | 0.12
45 | CTAGGGCC | -0.2
46 | CCGATCAC | 0.184
47 | TACGGCTA | -0.151
48 | ATCGGTTC | 0.192
49 | AGCCTTCC | -0.0527
50 | CAGATGAG | -0.164

Row | Sequence | PBM E-score
51 | CTCATGTC | -0.0622
52 | GCAGGTGA | -0.238
53 | AACGGCTT | 0.0106
54 | AGCCATGG | -0.264
55 | CACCGCCG | 0.0689
56 | CAATATGA | -0.0412
57 | GCTAAGAC | 0.0562
58 | CTGTATCC | 0.164
59 | CAAGCTCG | 0.134
60 | ATAAACGC | -0.109
61 | CCGTTGGC | 0.267
62 | ATACCCTA | -0.253
63 | AATCTCTA | -0.0032
64 | CGTTGCAA | 0.0158
65 | GCAGGGGA | -0.0573
66 | AGCCTGGC | -0.133
67 | CGGAACGC | 0.466
68 | GTAGCCCA | -0.27
69 | AGTAGACC | -0.0973
70 | CACCCCTA | -0.137
71 | CTGCCTGC | -0.271
72 | CGGACCTC | 0.287
73 | GCTATAGA | -0.193
74 | CCGGAGTC | 0.384
75 | AGTTTAAC | -0.113

Row | Sequence | PBM E-score
76 | GATGCGGC | 0.109
77 | CGAGACTA | -0.0399
78 | CGCTTGGC | -0.21
79 | TAAGTGGA | -0.0436
80 | AGTCGCTG | -0.205
81 | ATTCAACC | 0.106
82 | ACAGTAAG | -0.0855
83 | ATCTCCAA | -0.0877
84 | CCGGAAGC | 0.444
85 | CGGTCTCA | -0.115
86 | GTCCCTCA | -0.142
87 | AGTTAAAT | -0.224
88 | GTCAAGCA | -0.183
89 | ATTCTCTC | -0.0624
90 | ATCATCAA | 0.0482
91 | TCGATGAA | 0.0252
92 | TAACTGCA | -0.111
93 | CTACAATA | -0.0767
94 | CGCTCGTA | -0.0554
95 | AAGTGAGA | -0.058
96 | GCTACAAC | -0.059
97 | TAGCGGGA | 0.14
98 | TAGGGGGA | -0.218
99 | AACTGGTA | -0.0616
100 | TTTCAAAA | -0.113

Row | Sequence | PBM E-score
101 | TCAGCAGA | -0.151
102 | AGTACACT | -0.24
103 | GTTCCGAA | 0.471
104 | AACGAGGT | -0.104
105 | GTGTTTTA | -0.0862
106 | CCTCCGGA | 0.416
107 | CCGAGCAG | 0.127
108 | AACACCAG | -0.196
109 | ATTAACCA | -0.13
110 | GGGCATGA | -0.182
111 | ACGAGGCT | -0.136
112 | CTAATGGA | -0.0673
113 | CTATATTC | -0.142
114 | CCCCGATC | 0.212
115 | GTATCTTA | 0.111
116 | CCAAATAA | -0.15
117 | ATGGTATG | -0.0529
118 | AAATCAAG | 0.0523
119 | ACATGACA | -0.0834
120 | ACCTAACC | 0.0696
121 | CCAATCTC | 0.0944
122 | AGGGGGAC | -0.171
123 | ACCGCTTC | -0.102
124 | CCAGGTGA | -0.226
125 | CTTCGTTC | -0.0864

Row | Sequence | PBM E-score
126 | CGAGACCC | 0.21
127 | CGTGTTCC | 0.383
128 | GCGTCTCC | 0.172
129 | GAGACGAA | -0.111
130 | ACCCAACC | -0.0307
131 | TCGGCAGA | 0.239
132 | AAGAACTT | 0.00973
133 | AGGTGCCA | -0.00884
134 | CTTGATGC | -0.136
135 | AGATGGAG | -0.127
136 | ATAATGAT | 0.0423
137 | GAAAAAAC | -0.0935
138 | CTTTCTCA | -0.193
139 | ATACGGTA | 0.0302
140 | ATACCACA | -0.0693
141 | GCGGTAGC | 0.1
142 | CACCTGGC | -0.107
143 | GAGTAGGC | 0.0149
144 | GCTCGGCC | 0.0745
145 | GCAAAGCA | -0.0785
146 | CTATCGAC | -0.146
147 | CTCCCGTC | 0.229
148 | ACAGTACT | -0.0851
149 | AGGGCTCA | -0.266
150 | AATCGGGA | 0.252

Row | Sequence | PBM E-score
151 | ACAAATTC | 0.0513
152 | CAATCGGC | 0.04
153 | CACAATAA | -0.183
154 | CCAAGCTC | 0.00387
155 | CAGTATTC | 0.0217
156 | GCCAAACA | 0.0815
157 | TGTGCCAA | 0.0852
158 | CCTGACAG | -0.0625
159 | GCCGCACC | 0.197
160 | CTGTACGC | -0.206
161 | GCCGAAAA | 0.276
162 | AGTCAACT | -0.277
163 | CTAGTGCA | -0.104
164 | AAGTTCGA | 0.0312
165 | ATGCCTGC | -0.122
166 | CTACGTAA | -0.0539
167 | ATGGAGGC | -0.15
168 | CATACAGA | 0.0415
169 | TATGGCAA | -0.0456
170 | CCTATCTC | 0.094
171 | GACGGCTC | 0.0846
172 | CTGGAGCA | -0.126
